Measurements as given in PubChem BioAssay AID504832 (National Center for Advancing Translational Sciences (NCATS), 2011).
The campaign covered roughly 310,000 compounds. About 18,000 (5.8%) were called active. This list was built around the results that the source calls inconclusive (neither active nor inactive); the mix of calls is not that of the screen. Calls come from the whole dose curve; as a rule, active = well fitted inhibition curve with a large enough effect; inconclusive = small, poorly fitted or top-dose-only effect, or another doubt; inactive = no such curve, though single readings can be large or run the other way. No potency is given beside an inconclusive call; the fits are too rough.

Assay: Primary qHTS for delayed death inhibitors of the malarial parasite plastid, 48 hour incubation
Conditions: P. falciparum luciferase growth in erythrocytes; series mostly up to 28.7 µM; activity change, negative = inhibition: at the top concentration
How it was run: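 Parasite viability was followed by luminescence of a genomically integrated firefly luciferase. Cultures held 0.1% parasitemia at 2% hematocrit (final), incubated under 5% CO2 at 37 C.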
% is set by controls: 0 for no effect and ±100 for the full control effect; potency is the fitted concentration of half-maximal effect; tags give direction and shape of the fitted curve.

| Compound | Potency | activity change, negative = inhibition |
| --- | --- | --- |
| Cc1ccc(NC(=O)c2ccc(C)c(S(=O)(=O)N3CCOCC3)c2)nc1 | inconclusive [inhibitor, single point] | – |
| CSc1ccc(C(=O)C2CCCN(C)C2)cc1 (stereo not drawn) | – | inactive: 0% |
| COC1=C(C)C(=O)O[C@]12C(=O)C(C)=C1CCCCN3[C@H]([C@@H]4C[C@H](C)C(=O)O4)CC[C@]132 | inconclusive [inhibitor, partial curve, poor fit] | – |
| CCc1c(C(=O)NC2CCCCC2)[nH]c(C)c1C(C)=O | – | inactive: -4.67% |
| Cc1ccc(-c2ccc(=O)n(Cc3c(F)cccc3Cl)n2)cc1 | active: 13.1 µM | – |
| Cc1nn(CC(=O)NC2(C#N)CCCCC2)c(C)c1[N+](=O)[O-] | – | inactive: 3.09% |
| O=C(CSc1nnc(-c2ccco2)n1CC1CCCO1)c1ccccc1 (stereo not drawn) | – | inactive: 15.4% |
| CC(C)(C)C(=O)CSc1ccc(S(=O)(=O)N2CCN(Cc3ccccc3)CC2)cn1 | inconclusive [inhibitor, single point] | – |
| CCOC(=O)C1CCN(Cc2nc3ccccc3c(=O)n2-c2ccc(OCC)cc2)CC1 | inconclusive [inhibitor, single point] | – |
| O=C(NCCCCCc1nc2ccccc2[nH]1)c1ccccc1Cl | inconclusive [inhibitor, single point] | – |
| CC(C)CN(C(=O)CCC(=O)OCc1ccc(Cl)cc1Cl)c1c(N)n(CC(C)C)c(=O)[nH]c1=O | – | inactive: -34.5% |
| O=C(NC1CCCCCC1)c1ccco1 | – | inactive: 17.9% |
| O=C1c2ccccc2NC(c2ccccc2Br)N1CCCN1CCOCC1 (stereo not drawn) | inconclusive [inhibitor, single point] | – |
| Cc1ccc(S(=O)(=O)c2ccc(NN)cc2)cc1 | inconclusive [inhibitor, partial curve] | – |
| COc1ccccc1NC(=O)C1CC(O)CN1C(=O)Oc1ccccc1 (stereo not drawn) | – | inactive: 29.9% |
| Cn1nnnc1Sc1ncnc2scc(-c3ccc(C(F)(F)F)cc3)c12 | inconclusive [inhibitor, full curve] | – |
| O=C(Cc1ccc(Cl)cc1)N1CCOCC1 | – | inactive: 0% |
| CCOc1ccc(S(=O)(=O)N2c3ccccc3CC2C)cc1 (stereo not drawn) | inconclusive [inhibitor, single point] | – |
| COc1ccc(N2C(=O)CC(NCC#N)C2=O)cc1 (stereo not drawn) | – | inactive: -1.27% |
| COc1ccc(Cl)cc1Nc1nc(NCCO)nc(N2CCCC2)n1 | inconclusive [inhibitor, single point] | – |
| CC1(C(=O)NCc2ccc(F)cc2)Oc2ccccc2NC1=O (stereo not drawn) | – | inactive: 69.7% |
| COCCCN1CC(=O)N2C(c3ccc(OC)c(OC)c3)c3[nH]c4ccccc4c3C[C@H]2C1=O (stereo partly drawn) | inconclusive [inhibitor, partial curve, poor fit] | – |
| CC1CCCC(NC(=O)C2COc3ccccc3O2)C1C (stereo not drawn) | – | inactive: 19% |
| O=c1cc(-c2ccccc2)cc(-c2ccccc2)n1O | active: 13.1 µM | – |

| Compound | Potency | activity change, negative = inhibition |
| --- | --- | --- |
| C(=N\Nc1nc2ccccc2s1)/c1cccs1 | – | inactive: 1.76% |
| CC(C)NS(=O)(=O)c1ccc(OCC(=O)N2CCc3ccccc3C2)cc1 | inconclusive [inhibitor, partial curve] | – |
| COc1ccc([C@@H]2[C@@H]3C(=O)N(C(C)(C)C)C(=O)[C@@H]3[C@]3(C)C(=O)N(c4cccc(Br)c4)C(=O)N23)cc1 | inconclusive [inhibitor, single point] | – |
| Cn1cnc([N+](=O)[O-])c1Nc1ccc(O)cc1 | – | inactive: -9.89% |
| COc1ccc(Oc2coc3cc(OC(=O)/C=C/c4ccc(F)cc4)ccc3c2=O)cc1 | inconclusive [inhibitor, single point] | – |
| Cc1cc2cc(CNS(=O)(=O)N(C)C)ccc2[nH]1 | – | inactive: -21.2% |
| C[C@H]1[C@@H](OC(=O)CCC(=O)O)OC2OC3(C)CC[C@H]4[C@H](C)CC[C@@H]1[C@@]24OO3 (stereo partly drawn) | active: 0.0019 µM | – |
| CCOc1ccc(NC(=O)CN(C)C(=O)CC2CCCCC2)cc1OCC | inconclusive [inhibitor, single point] | – |
| Cc1ccc(S(=O)(=O)N2CCCCC2)cc1NC(=O)C1=NN(c2ccccc2)C(=O)CC1 | inconclusive [inhibitor, single point] | – |
| C/C=C/c1ccc(OCCCCOc2ccccc2C(C)=O)c(OC)c1 | inconclusive [inhibitor, single point] | – |
| OCC1(Cc2cccc(Cl)c2)CCCN(Cc2cn[nH]c2C2CCCCC2)C1 (stereo not drawn) | active: 11.7 µM | – |
| Cc1cccc(-n2c(SCC(=O)Nc3nnc(C)s3)nnc2-c2ccoc2C)c1 | inconclusive [inhibitor, full curve] | – |
| COc1ccc(Br)cc1CN(C)C(=O)c1ccccc1OCc1c(C)noc1C | inconclusive [inhibitor, single point] | – |
| N#CCC(=O)N/N=C/c1cc([N+](=O)[O-])ccc1N1CCCC1 | inconclusive [inhibitor, partial curve] | – |
| CCOC(=O)C1(Cc2ccc(OC)cc2)CCN(C(=O)Cc2cccnc2)CC1 | inconclusive [inhibitor, single point] | – |
| CCn1c(SCC(=O)Nc2ccc(C(C)=O)cc2)nc2nc3c(cc2c1=O)CCCC3 | inconclusive [inhibitor, single point] | – |
| CCC(=O)N/C(=N/c1nc(C)cc(C)n1)Nc1ccccc1 | – | inactive: 11.1% |
| c1c2c(cc3sc(N4CCOCC4)nc13)OCO2 | – | inactive: 0.202% |
| O=C(Nc1ccc2c(c1)CCCN2C(=O)c1cccs1)c1c(F)cccc1Cl | – | inactive: -17% |
| CCOc1ccc(N2C(=O)CC(n3ccc(C)n3)C2=O)cc1 (stereo not drawn) | – | inactive: 9.81% |
| CSc1ccc(C(=O)C2CCCN(C(=O)c3cccc(N4CCOCC4)c3)C2)cc1 (stereo not drawn) | – | inactive: -6.74% |
| CCCCNC(=S)Nc1ccccc1Cc1ccccc1 | inconclusive [inhibitor, partial curve] | – |
| COc1ccc(NC(C)C(=O)Nc2ccc(C(C)(C)C)cc2)cc1Cl (stereo not drawn) | inconclusive [inhibitor, single point] | – |
| Cc1cccc(NC(=O)c2ccc(C3SCC(=O)N3CCc3ccccc3)cc2)c1 (stereo not drawn) | inconclusive [inhibitor, partial curve, poor fit] | – |
